The RNAGym collection of RNA variant scans (doi:10.1093/nar/gkz1192)
The source gives no read counts; variants with many changes may rest on few reads.

B1: CPEB3 Ribozyme (parent)
chain: UAACAGGGGGCCACAGCAGAAGCGUUCACGUCGCAGCCCCUGUCAGAUUCUGGUGAAUCUGCGAAUUCUGCUGUAUAUCUC

Variants of: B1
Experiment: self-cleavage, relative activity (ratio to wild type); higher = more cleavage; in vitro, sequencing
Outline: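 Relative activity compares each variant's cleaved/total read fraction with that of the unmutated ribozyme. To get these fractions, barcoded CPEB3 ribozyme libraries from rounds of error-prone PCR were transcribed with T7 RNA polymerase for 5 hours at 37°C and then given 15 min of DNase I treatment before EDTA was added. The RNAs were reverse transcribed with template switching and sequenced on Illumina, and DNA sequencing linked barcodes to variants. A minimum of 5 reads applied, and three batches were averaged.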

Variant | self-cleavage
A18U U60G U78A | 0.2
A18U U66A A75U | 0.24
A18U U66A A77U | 0.18
A18U U67A U76C | 0.29
A18U U67A U80A | 0.19
A18U U67C U78C | 0.12
A18U U69A U74C C81G | 1.31
A18U U69A U80A | 1.22
A18U U69A U80C | 1.2
A18U U72A U74C | 0.32
A18U U72A U78C | 0.22
A18U U72C A77G | 0.38
A18U U72G U76C | 0.19
A18U U74A A75G | 0.45
G19A A20C A45G C79U | 0.07
G19A A20G C29U U54A | 0.05
G19A A20G C39A | 0.21
G19A A20G U54A | 0.4
G19A A20G U54C G55U U58A U60C | 0.08
G19A A20G U76G C79A | 0.49
G19A A20U A64C A77C | 0.05
G19A A20U U43C A57G | 0.12
G19A A20U U48G | 0.27
G19A A20U U80A | 0.26

Variant | self-cleavage
G19A A21C C39U | 0.05
G19A A21G A47G U69A | 0.08
G19A A21G C79A | 0.35
G19A A21G U54C A56U | 0.08
G19A A21U G30C U41C A56G U72C A77G | 0.11
G19A A21U U43C U54C G55U A65G U67A | 0.05
G19A A21U U51A A64G U72A C79U | 0.14
G19A A28C G30A U41A U54G U72C A75U | 0.05
G19A A28G C37G U41C U72C | 0.02
G19A A28G U43A A65G U80C | 0.17
G19A A28G U74C | 0.1
G19A A35G G46A U76C | 0.13
G19A A35U C71G | 0.11
G19A A45G U60C U66G U69C | 0.08
G19A A47G U54A U67C C81A | 0.04
G19A A47U A57C A64U | 0.08
G19A A57U U72C U74C | 0.24
G19A A64G U78C | 0.4
G19A C38G A65G U69A | 0.04
G19A C40G A57G U60G C62A U72C | 0.07
G19A G24A G42A A65G U67C U80C | 0.06
G19A U25A C29U A77G | 0.18
G19A U25A G36C U51G U66C | 0.05
G19A U25A U26C A64G | 0.11

Variant | self-cleavage
G19A U25C A64U U72A U78C | 0.03
G19A U25C C38A U43C A56G A75U U78C | 0.04
G19A U25C G42A C50A | 0.16
G19A U25C U31A | 0.29
G19A U25C U41C | 0.16
G19A U25C U41C U43A U58C | 0.06
G19A U25C U41C U54A G63A U78C | 0.1
G19A U25C U72C | 0.42
G19A U25G U31G A65G U67C U80C | 0.05
G19A U26A G42A U43C U51C | 0.06
G19A U26A U31C U67C | 0.09
G19A U26C A28G A45G G46U U78A | 0.08
G19A U26C A35U | 0.09
G19A U26C C50A G61A U67C U74A | 0.1
G19A U26C G42A U51C | 0.07
G19A U26C U41G A65G A77C | 0.11
G19A U31A U66A | 0.11
G19A U31C U60C | 0.34
G19A U41A G46A U58A A77G | 0.07
G19A U41A U80C | 0.07
G19A U41C U48C U51C | 0.14
G19A U43A U49A U72G A77G | 0.24
G19A U43C G46U A64G U78C | 0.17
G19A U48C U49A U80C | 0.19

Variant | self-cleavage
G19A U48C U60A C81A | 0.3
G19A U48C U74A | 0.41
G19A U49C U54G | 0.08
G19A U51A U78C | 0.34
G19A U60C G61C U80C C81U | 0.05
G19C A20G C40U U51C U72C U76C | 0.13
G19C A20U U51C G63C C71A | 0.08
G19C A21G U54C A56C G73U U78C | 0.04
G19C A28G A47G A64G | 0.23
G19C A28G U49C G53U | 0.13
G19C A28U U58C C79A | 0.01
G19C A35U U60C | 0.14
G19C A47G U54C A57G U60C | 0.23
G19C A57G A65G | 0.25
G19C C27U A47G A64G | 0.22
G19C C29A A45G U76C A77G | 0.12
G19C C37U A57G U66G A77U | 0.07
G19C G24A U41C A64G | 0.06
G19C G24A U41C U51A A57G U60C | 0.12
G19C G30U A64G | 0.23
G19C G36A U41G A45G A56G U58C U80A | 0.05
G19C G70U U80C | 0.16
G19C U25A A35C U58C U72C | 0.17
G19C U25A C71A U74C | 0.03

Variant | self-cleavage
G19C U25C G36A U51G U60A A64G | 0.08
G19C U25C U60A | 0.06
G19C U25C U78C | 0.26
G19C U26C A28U U49C A65G | 0.07
G19C U31A G36A A56G U67C U78C | 0.05
G19C U31A G63U U78C U80C | 0.16
G19C U41A A47G C59A | 0.07
G19C U41A A65G U74A | 0.14
G19C U41A U48C | 0.07
G19C U41C U72C | 0.37
G19C U41G A45G | 0.22
G19C U41G A45G A56U | 0.23
G19C U43C A45G U60A U66A | 0.15
G19C U48A A75U U80G | 0.05
G19C U49A A75U U78A | 0.09
G19C U49A C81A | 0.05
G19C U49C A75G | 0.16
G19C U51A U58C | 0.21
G19C U60A U69C U80C | 0.24
G19U A20G A64G G70U | 0.14
G19U A20G C27U A35U C62U A65G U69A | 0.03
G19U A20G C39G A47G U51A U72C | 0.07
G19U A20G G33C U43A U60A | 0.14
G19U A20G U41A | 0.25

Variant | self-cleavage
G19U A20U A35G U49C | 0.27
G19U A20U A47U A65G | 0.12
G19U A20U A65G | 0.24
G19U A20U U25C C39A A64U | 0.18
G19U A21G A35U U54C | 0.06
G19U A21G U26A C39U G42U G53A U69A | 0.06
G19U A21G U74G | 0.72
G19U A28C C29U G33A U41C A45G | 0.06
G19U A28G A57G | 0.18
G19U A28G C37A | 0.09
G19U A28U U51A U78A | 0.12
G19U A35G U66C | 0.27
G19U A35U G53C A57G | 0.06
G19U A35U U43A U48C U72C | 0.26
G19U A35U U43C U48C A57G | 0.13
G19U A45C U72C U80A | 0.25
G19U A45G U49C U74A | 0.15
G19U A45U A65G U66C | 0.07
G19U A45U U54A | 0.17
G19U A47G A75G | 0.42
G19U A56G A57G | 0.17
G19U A56G A57G A77U | 0.07
G19U A56G A57G G73A | 0.1
G19U A64G U78C U80C | 0.13

Variant | self-cleavage
G19U C23G A47G C62U A75U | 0.05
G19U C27A A45G | 0.07
G19U C37U U51C A56G | 0.12
G19U C38U U48C C50U U60A | 0.04
G19U C40A U41C U49C U58C | 0.1
G19U C44A A45G | 0.07
G19U C44A A75G | 0.26
G19U C44G A47G | 0.14
G19U C50A A75U | 0.25
G19U G24U U58C U60C U66C | 0.04
G19U G30A U43A G53C A57G | 0.19
G19U G30A U49C C59U U78C C81U | 0.05
G19U G30U U69A | 0.15
G19U G33A U49C U69A | 0.06
G19U G36A U43A A56G U67C U78C U80C | 0.07
G19U G52A A64G U78C | 0.26
G19U G55U A57U A65G | 0.1
G19U U25A U51A A64U A75U | 0.1
G19U U25C A28C A35G U60A | 0.15
G19U U25C A28C U31C U72A | 0.09
G19U U25C A35G A45U U49C A64G U72A | 0.04
G19U U25C A56U U72C | 0.14
G19U U25C C38G U49C U58C C62G A64G | 0.07
